Results taken from PMC4336329 (PLoS ONE, 2015).
Hit rate of the full screen: of about 310,000 compounds, about 2,200 (0.71%) showed an effect of 50% or more. The effect is printed as a negative number. The list shows a part of the results.

Target: human ether-à-go-go-related gene (hERG) potassium channel (human, UniProt Q12809)
Assay: primary screen, population patch clamp on CHO cells stably expressing hERG

Chain of human ether-à-go-go-related gene (hERG) potassium channel (Q12809 whole entry, looked up): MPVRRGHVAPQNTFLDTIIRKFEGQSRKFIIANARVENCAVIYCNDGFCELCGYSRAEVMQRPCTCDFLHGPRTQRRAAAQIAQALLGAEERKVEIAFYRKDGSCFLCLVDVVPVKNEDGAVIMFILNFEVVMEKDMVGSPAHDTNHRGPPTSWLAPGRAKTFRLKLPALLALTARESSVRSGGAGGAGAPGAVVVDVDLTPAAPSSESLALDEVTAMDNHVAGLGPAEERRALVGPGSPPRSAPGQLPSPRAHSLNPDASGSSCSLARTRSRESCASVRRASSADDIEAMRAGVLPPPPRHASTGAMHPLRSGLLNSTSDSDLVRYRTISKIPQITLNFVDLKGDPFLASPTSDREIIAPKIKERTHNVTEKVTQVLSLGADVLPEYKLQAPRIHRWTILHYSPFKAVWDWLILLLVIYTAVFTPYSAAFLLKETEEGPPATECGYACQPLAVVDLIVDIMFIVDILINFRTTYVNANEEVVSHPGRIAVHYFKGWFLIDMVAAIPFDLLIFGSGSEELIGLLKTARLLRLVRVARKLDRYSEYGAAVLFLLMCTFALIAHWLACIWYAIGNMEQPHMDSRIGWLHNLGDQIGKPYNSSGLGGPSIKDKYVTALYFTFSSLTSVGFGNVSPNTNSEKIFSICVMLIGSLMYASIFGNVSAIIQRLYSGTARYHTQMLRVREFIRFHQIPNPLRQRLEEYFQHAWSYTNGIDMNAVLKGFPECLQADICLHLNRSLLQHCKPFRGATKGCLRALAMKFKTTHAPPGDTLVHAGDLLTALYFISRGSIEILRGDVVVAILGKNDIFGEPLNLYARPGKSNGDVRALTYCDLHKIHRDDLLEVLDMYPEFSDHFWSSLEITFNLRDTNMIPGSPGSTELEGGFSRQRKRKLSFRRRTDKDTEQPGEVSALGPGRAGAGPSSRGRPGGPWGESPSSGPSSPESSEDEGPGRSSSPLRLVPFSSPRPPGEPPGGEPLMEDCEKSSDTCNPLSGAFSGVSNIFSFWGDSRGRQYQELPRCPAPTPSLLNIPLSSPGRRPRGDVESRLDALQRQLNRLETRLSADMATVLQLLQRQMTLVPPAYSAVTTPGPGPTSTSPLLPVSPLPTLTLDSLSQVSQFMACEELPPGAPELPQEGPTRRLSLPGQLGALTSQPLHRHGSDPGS

Structure (SMILES) | hERG current change (%, negative = inhibition) at 1uM
CCNC(=S)NNC(=O)c1csc(C)c1 | 16.1%
COc1ccc(Nc2nc(C)nc3c2nnn3Cc2ccccc2)cc1OC | 4.84%
CN(C)S(=O)(=O)n1cnc2ccccc21 | 8.28%
CCN1C(=O)c2ccccc2S(=O)c2ccc(C(=O)NCCCN3CCCC3=O)cc21 (stereo not shown) | 6.94%
COC(=O)c1ccc(Oc2nc(SC)nc(N(C)C)n2)cc1 | 16.3%
Cc1cc2c3c(c1)C(C)(c1ccccc1)CC(C)(C)N3C(=O)C21C(C#N)=C(N)OC2=C1C(=O)CC(C)(C)C2 (stereo not shown) | -8.61%
Cc1ccc(Cn2ccc(NC(=O)c3cc(-c4cccs4)on3)n2)cc1 | 7.71%
COc1cccc(-c2nc(CS(=O)(=O)CC(=O)NCCCc3ccccc3)c(C)o2)c1 | 8.94%
COc1ccc(CC(NC(C)=O)C(=O)NC2CCN(C(=O)C3CCCCC3)CC2)cc1OC (stereo not shown) | 16.7%
Cc1ccc(OCCC(=O)N(CCC(C)C)c2c(N)n(Cc3ccccc3)c(=O)[nH]c2=O)cc1 | 9.14%
COC(=O)c1nc(NNC(=O)c2ccccc2)sc1-c1ccccc1 | 14.3%
NC(=O)C1CCN(C(c2ccccc2)c2nnnn2C2CCCC2)CC1 (stereo not shown) | 12.3%
CN(C)c1ccc(/C=N/NC(=O)CNC(=O)c2ccc3c(c2)OCCO3)cc1 | 8.33%
CC1CC(C)CN(c2ccc(-n3cnnn3)cc2[N+](=O)[O-])C1 (stereo not shown) | -1.54%
COc1cc(N)ccc1C(=O)O | -1.48%
Nc1nc(SCC(=O)N2CCCC2)[nH]c(=O)c1-c1ccccc1 | 14%
CCN1CC(CN(C)Cc2nc(-c3ccc(C(F)(F)F)cc3)no2)CC1=O (stereo not shown) | 0.248%
Cn1c(SCc2ccc(C(=O)Nc3nccs3)cc2)nnc1-c1ccccc1 | 2.95%
CCOc1ccc(NC(=O)c2nn(C)c(C(=O)Nc3ccc(OCC)cc3)c2[N+](=O)[O-])cc1 | 12.3%
CCCC(C(=O)NCc1ccco1)N(C(=O)CNS(=O)(=O)c1ccccc1)c1ccc(OC)cc1 (stereo not shown) | 0.987%
Cc1ccccc1OCCn1cc(/C(N)=N/O)c2ccccc21 | 14%
CCCn1c(N)c(N(CCOC)C(=O)CSc2cc(C)c3cccc(C)c3n2)c(=O)[nH]c1=O | 5.36%
CCOC(=O)c1ccc2c(c1)nc(COc1ccc3ccccc3c1)n2CC | 4.84%
CN(CCOc1ccccc1)C(=O)C1CCC(=O)N(CCN2CCOCC2)C1 (stereo not shown) | 11.4%
COC(=O)c1ccc(NC(=O)CSc2nncn2-c2ccccn2)cc1 | 19.8%
CCCC[C@@H]1CCCO[C@@](C(=O)NCc2ccccn2)(C(F)(F)F)C1 | 4.82%
O=c1oc(-c2cccs2)nc2c1cnn2-c1ccccc1 | -11.5%
COc1ccc(-c2noc(COc3ccc4ccccc4c3Br)n2)cc1OC | 2.31%

Structure (SMILES) | hERG current change (%, negative = inhibition) at 1uM
CCCCN1C(=O)C(=O)N(CC(=O)Nc2ccc(C(N)=O)cc2)C1=O | -0.837%
CNS(=O)(=O)c1cccc(C(=O)NCC2(N3CCCCC3)CCCCC2)c1 | 8.21%
COc1ccc(NCCC#N)cc1 | 7.5%
CCc1ccc(CN2CCC(CO)(CC3CCCCO3)CC2)o1 (stereo not shown) | 4.03%
CC(C)(C)C(=O)N1CCN(c2ccc([N+](=O)[O-])c(NCC3CCCO3)c2)CC1 (stereo not shown) | 4.57%
Cc1nn(-c2ccccc2)c(Cl)c1/C=N/Nc1nc2ccccc2[nH]1 | 10.1%
NC(CC(=O)NC(c1ccccc1)(c1ccccc1)c1ccccc1)C(=O)O (stereo not shown) | 10.1%
O=C(O)c1cccc(-n2cccc2/C=C2\NC(=O)N(Cc3ccc(F)cc3)C2=O)c1 | 9.78%
CCN(CC)CC(O)Cn1c(-c2ccccc2Cl)nc2ccccc21 (stereo not shown) | 1.07%
Cc1cccc(C)c1C(=O)N[C@@H](Cc1ccccc1)C(=O)O | 15.1%
Cc1sc2nc(SCC(=O)N(CCO)CCO)n(C3CCCCC3)c(=O)c2c1C | 4.67%
COc1ccccc1Nc1c2c(nc3ccc(N)cc13)CCCC2 | -48%
Cc1cccc(-n2nc([N+](=O)[O-])c(=NCc3cccnc3)n2O)c1 | 4.03%
COc1ccccc1NC(=O)c1ccc(NC(=O)COC(=O)C2(C)CC2(Cl)Cl)cc1 (stereo not shown) | 5.18%
CC(c1ccccc1)n1c(CO)nc2ccccc21 (stereo not shown) | 17.9%
Cc1ccc(CN2CC(C(=O)Nc3ccc(S(=O)(=O)N4CCCCC4)cc3)CC2=O)cc1 (stereo not shown) | 4.79%
Cc1c(Br)c([N+](=O)[O-])nn1CC(=O)N1CCN(Cc2ccccc2)CC1 | -19.2%
C[C@H](NC(=O)OC(C)(C)C)C(=O)N/N=C/C1=Cc2ccccc2OC1 | 9.34%
COc1cccc(CN(C)C(=O)c2ccccc2Sc2ccccc2C#N)c1 | 14.7%
COc1cccc(CC(=O)N[C@@H](CCSC)c2nc3ccccc3[nH]2)c1 | -2.82%
CCn1c2ccccc2c2c3ncc4cccn4c3ccc21 | 16.6%
COc1nc(NCCO)nc(Nc2ccccc2F)n1 | 14.7%
COC(C[C@@H]1O[C@H]1[C@H](O)[C@@H](C)OCc1ccccc1)OC | -1.45%
CCN(CC)c1nc(N2CCN(CCO)CC2)nc2ccccc12.Cl | 5.07%
CSc1ccc(CNC(=O)C(C)n2nc(C)c3c(C)n(-c4ccccc4)nc3c2=O)cc1 (stereo not shown) | -8.46%
Cc1nc2nc(N)nc(OCc3ccccc3)c2nc1C | 10.6%
CC(=O)c1cccc(NS(=O)(=O)c2ccc3c(c2)oc(=O)n3C)c1 | 5.98%
